Assay [1] concerns cells expressing markers characteristic of the pancreatic endocrine lineage. Description: Screening of EMD Kinase Inhibitor Library I for MAFA expression, real-time PCR (Example 10). In kind it is cell-based. Conditions: for Gene Induction vs. H1: MAFa: 2.5 μM, days 1, 3, 5 of stage 5, fold increase versus untreated H1 human embryonic stem cells. On the technique in general: In qPCR the cycle at which signal appears reflects the starting amount.

Assay [2] shares this test system. Description: Screening of BIOMOL Kinase Inhibitor Library, real-time PCR (Example 7). Conditions: for Ratio vs. Control: Insulin to Glucagon / Ratio vs. Control: MAFA to Arx4: 4 μM, six days; for fold induction at 4 µM: Homo sapiens, 144 h.
[3] abbreviates: read-out: Ratio vs. Control: Insulin to Glucagon.
[4] abbreviates: read-out: Ratio vs. Control: MAFA to Arx4.

Consider 18 molecules from US9234178B2, “Differentiation of human pluripotent stem cells” (Janssen Biotech, Inc., priority 2008, dated 2016).

Like-named read-outs stand apart in the source and are kept apart here.

`COc1ccc2c(c1)c(C1=C(c3c[nH]c4ccccc34)C(=O)NC1=O)cn2CCCN(C)C` [Gö 6983]: the “Gene Induction vs. H1: MAFa” value in assay [1] was 1.0 fold.

`COc1cc2ncnc(Nc3ccc(Oc4ccccc4)cc3)c2cc1OC` [Src Kinase Inhibitor I]: the “Gene Induction vs. H1: MAFa” value in assay [1] is given as 2.3 fold.

On to `Cc1cc(C)c(C=C2C(=O)Nc3ccccc32)[nH]1` [VEGF Receptor 2 Kinase Inhibitor III], for which the “Gene Induction vs. H1: MAFa” value in assay [1] is reported as 1.1 fold.

As for `COc1cccc(-c2cc(=O)c3ccccc3o2)c1N` [Well B1, PD-98059], in assay [2], the “Ratio vs. Control: Insulin to Glucagon” value came to 1.6 and the “Ratio vs. Control: MAFA to Arx4” value stood at 0.9.

For `C[C@@H](N)[C@H]1CC[C@H](C(=O)Nc2ccncc2)CC1` [Well G11, Y-27632], the fold induction at 4 µM in assay [2] (setting [3]) came to 1.9; in assay [2] (setting [4]), 0.6.

Take `O=c1cc(N2CCNCC2)oc2c(-c3ccccc3)cccc12` [LY 303511]: the fold induction at 2.5 µM in assay [1] (Embryonic stem cell, days 1, 3, 5 of stage 5, fold increase versus untreated H1 human embryonic stem cells, read-out: Gene Induction vs. H1: MAFa) was 1.7.

As for `Cl.Cl.NCCNc1ncc(C(N)=O)c(Nc2cccc(C(F)(F)F)c2)n1` [Syk Inhibitor II], in assay [1], the “Gene Induction vs. H1: MAFa” value is given as 0.8 fold.

Take `CC1CNCCN1S(=O)(=O)c1cccc2cnccc12` (centres unmarked) [Well B4, H-7]: in assay [2], the “Ratio vs. Control: Insulin to Glucagon” value is reported as 1.1 and the “Ratio vs. Control: MAFA to Arx4” value is 2.0.

For `COCc1cc(O)c(O)c(O)c1-c1c(COC)cc(O)c(O)c1O` [Well G7, 2,2′,3,3′,4,4′-Hexahydroxy-1,1′-biphenyl-6,6′-dimethanol dimethyl ether], the fold induction at 4 µM in assay [2] (setting [3]) was 4.6; in assay [2] (setting [4]) it was 0.2.

Consider `Cn1cnc2nc(NCCO)nc(NCc3ccccc3)c21` [Well E11, iso-Olomoucine], for which, in assay [2], the “Ratio vs. Control: Insulin to Glucagon” value worked out at 1.0 and the “Ratio vs. Control: MAFA to Arx4” value is 0.3.

Turning to `CC(C)c1cc(/C=C(\C#N)C(=O)NCCCc2ccccc2)cc(C(C)C)c1O` [Well G3, SU1498], in assay [2], the “Ratio vs. Control: Insulin to Glucagon” value came out at 2.0 and the “Ratio vs. Control: MAFA to Arx4” value was 1.6.

For the molecule `O=P(O)(O)C(O)c1ccc2ccccc2c1` (centres unmarked) [Well C9, Hydroxy-2-naphthalenylmethylphosphonic acid], the fold induction at 4 µM in assay [2] (setting [3]) was determined as 0.8; in assay [2] (setting [4]), 0.5.

With GTP-14564, the “Gene Induction vs. H1: MAFa” value in assay [1] is listed as 0.7 fold.

Regarding `NC(N)=NCCNS(=O)(=O)c1cccc2cnccc12` [Well E1, HA-1004], in assay [2], the “Ratio vs. Control: Insulin to Glucagon” value is listed as 1.1 and the “Ratio vs. Control: MAFA to Arx4” value amounted to 0.9.

As to `CCN(CC)CCCCN1c2ccccc2Oc2ccc(Cl)cc21` [Akt Inhibitor X], the “Gene Induction vs. H1: MAFa” value in assay [1] stood at 1.4 fold.

With `Cl.O=S(=O)(c1cccc2c(Cl)cccc12)N1CCCNCC1` [Well E7, ML-9], in assay [2], the “Ratio vs. Control: Insulin to Glucagon” value came out at 4.8 and the “Ratio vs. Control: MAFA to Arx4” value worked out at 0.2.

Turning to `O=S(=O)(c1cccc2cnccc12)N1CCCNCC1` [Well E2, HA-1077], the fold induction at 4 µM in assay [2] (setting [3]) and in assay [2] (setting [4]) was 0.8 throughout.

Consider `CC1=C(O)C(=O)[C@@H]2O[C@@H]2C1=O` [Well H1, Terreic acid], for which the fold induction at 4 µM in assay [2] (read-out: Ratio vs. Control: Insulin to Glucagon, 4 μM, six days) was 3.1; in assay [2] (read-out: Ratio vs. Control: MAFA to Arx4, 4 μM, six days) it was 0.6.
